Measured values: paper PMC4336329 (PLoS ONE, 2015)
Among all 310,000 compounds or so, about 2,200 (0.71%) showed an effect of 50% or more. Effects have a minus sign here. Some of the results follow.

Molecular target: human ether-à-go-go-related gene (hERG) potassium channel (human, UniProt Q12809)
Test: primary screen, population patch clamp on CHO cells stably expressing hERG

human ether-à-go-go-related gene (hERG) potassium channel, sequence (Q12809 whole entry, looked up): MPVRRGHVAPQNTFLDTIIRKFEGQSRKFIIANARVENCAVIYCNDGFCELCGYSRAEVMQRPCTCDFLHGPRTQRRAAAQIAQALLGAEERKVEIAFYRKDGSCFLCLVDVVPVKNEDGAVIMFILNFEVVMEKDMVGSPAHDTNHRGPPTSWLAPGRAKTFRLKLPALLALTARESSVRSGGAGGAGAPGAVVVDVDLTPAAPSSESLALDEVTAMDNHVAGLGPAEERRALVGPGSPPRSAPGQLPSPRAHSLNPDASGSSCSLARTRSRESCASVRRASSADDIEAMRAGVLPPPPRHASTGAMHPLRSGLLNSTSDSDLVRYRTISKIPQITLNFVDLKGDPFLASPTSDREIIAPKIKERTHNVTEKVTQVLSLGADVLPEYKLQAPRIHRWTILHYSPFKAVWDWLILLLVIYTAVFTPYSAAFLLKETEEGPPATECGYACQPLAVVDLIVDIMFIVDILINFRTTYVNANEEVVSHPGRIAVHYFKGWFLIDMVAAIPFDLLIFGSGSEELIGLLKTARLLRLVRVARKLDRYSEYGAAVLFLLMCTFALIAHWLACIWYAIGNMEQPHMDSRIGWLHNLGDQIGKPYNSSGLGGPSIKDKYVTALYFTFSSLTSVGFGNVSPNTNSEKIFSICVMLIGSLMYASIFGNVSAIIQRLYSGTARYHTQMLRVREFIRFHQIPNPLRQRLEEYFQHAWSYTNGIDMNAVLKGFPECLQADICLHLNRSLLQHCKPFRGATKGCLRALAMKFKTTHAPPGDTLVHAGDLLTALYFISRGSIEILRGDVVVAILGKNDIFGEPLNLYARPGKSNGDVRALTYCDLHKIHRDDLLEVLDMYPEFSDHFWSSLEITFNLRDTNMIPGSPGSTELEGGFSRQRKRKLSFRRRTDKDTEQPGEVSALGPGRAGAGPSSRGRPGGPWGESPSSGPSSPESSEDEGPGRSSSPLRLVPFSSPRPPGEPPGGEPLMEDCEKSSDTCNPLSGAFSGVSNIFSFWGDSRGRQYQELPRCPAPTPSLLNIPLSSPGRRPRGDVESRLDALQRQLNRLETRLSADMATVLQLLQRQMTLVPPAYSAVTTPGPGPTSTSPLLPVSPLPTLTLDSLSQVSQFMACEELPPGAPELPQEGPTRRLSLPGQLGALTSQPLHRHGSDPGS

Row | SMILES | hERG current change (%, negative = inhibition) at 1uM
1 | O=C(Nc1cccc(-n2cnnn2)c1)c1ccccc1Br | 9.08%
2 | Cc1cc(C)c2nc(N3CCCC(C(=O)NCCN4CCOCC4)C3)sc2c1 (stereo not drawn) | 1.89%
3 | CC(=O)NCCNC(=O)c1ccc(NC2=NC3CS(=O)(=O)CC3S2)cc1 (stereo not drawn) | 7.25%
4 | O=C(NCc1ccncc1)c1ccc(Cn2cc(C(F)(F)F)ccc2=O)cc1 | 11.8%
5 | O=C(Nc1ccc(N2CCN(C(=O)c3ccccc3F)CC2)cc1)c1cncc(Br)c1 | 4.97%
6 | O=C(COC(=O)c1cccc([N+](=O)[O-])c1)c1ccc2c(c1)OCO2 | 6.17%
7 | COc1ccc(C(=O)NCCn2cc(SCC(N)=O)c3ccccc32)cc1 | 7.97%
8 | CCN1CCN(C(=O)C2CCN(S(=O)(=O)c3ccc(Br)cc3)CC2)CC1 | 6.11%
9 | CCNC(=S)N1CCC(C(=O)c2ccc(Cl)cc2)CC1 | 6.08%
10 | Cc1cc(C)c(S(=O)(=O)NCc2ccc3c(c2)OCO3)cc1C | 9.23%
11 | COc1ccc(CCNC(=O)C2CCCN(c3nc(C)cc(C)n3)C2)cc1 (stereo not drawn) | 17.9%
12 | COc1ccc(C)cc1NC(=O)CSc1ccc(Cl)cc1 | 9.34%
13 | COc1cc2c(cc1NC(=O)c1ccncc1)oc1ccccc12 | 0.154%
14 | NNC(=O)Cn1c(-c2ccccn2)nc2ccccc21 | 14.1%
15 | CC(C)c1ccc(NC(=O)[C@H](Cc2c[nH]c3ccccc23)NC(=O)[C@@H]2Cc3ccccc3CN2)cc1 | 13%
16 | Cc1c(Cc2ccccc2)c(=O)oc2c(C)c(OC(C)C(=O)NCC3CCC(C(=O)O)CC3)ccc12 (stereo not drawn) | 13.9%
17 | COC(=O)c1ccc(S(=O)(=O)c2ccc(C(=O)OC)s2)s1 | 13.1%
18 | CCOC(=O)CN1C(=N)N(c2nc(NC(C)C)nc(NC(C)C)n2)CC1=O | -22.5%
19 | Cc1cccc(NC(=O)Cn2nnc3ccccc32)c1 | 12.5%
20 | CCC(C)N(C(=O)COc1ccc(Br)cc1C=O)C1CCS(=O)(=O)C1 (stereo not drawn) | 0.773%
21 | Cc1nn(-c2ccc(Cl)c(Cl)c2)c(=O)c2ccccc12 | 5.47%
22 | COC(=O)c1ccc(C2C(C#N)=C(N)Oc3cc(N)ccc32)cc1 (stereo not drawn) | 9.9%
23 | CCCCn1c(N)c(N(CC(C)C)C(=O)c2cccc(S(=O)(=O)N(C)c3ccccc3)c2)c(=O)[nH]c1=O | 10.2%
24 | Cc1cc(C)cc(N(CCC#N)C(=O)CSc2n[nH]c(N)n2)c1 | 11.6%
